Laboratory results taken from PMC6212790.
The other results are listed elsewhere or left out. At the low end of the ranking the order means little.

biological target: T1, GST-Rok (full length) (UniProt O34857); experiment: protein binding microarray; details: Rok is a gene silencer of Bacillus subtilis; high values mean tight binding; most listed sequences are background and not binding sites; double strand, one strand shown;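 note: rank score from −0.5 (least bound) to 0.5 (best bound)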
T1 sequence: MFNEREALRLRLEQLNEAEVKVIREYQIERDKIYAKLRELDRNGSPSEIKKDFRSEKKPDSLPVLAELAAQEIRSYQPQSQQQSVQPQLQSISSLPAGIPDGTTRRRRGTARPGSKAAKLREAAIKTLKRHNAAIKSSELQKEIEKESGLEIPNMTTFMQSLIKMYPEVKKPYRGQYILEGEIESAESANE

Row | Sequence | binding signal
1 | GCGAATGA | -0.0886 E-score
2 | CACGCTTC | -0.2 E-score
3 | GGTCTTTA | -0.0477 E-score
4 | AACGCCGC | -0.28 E-score
5 | AGTATAGG | 0.286 E-score
6 | GACTCATA | -0.016 E-score
7 | AACGACCA | -0.0854 E-score
8 | ACGCTGCC | -0.207 E-score
9 | CGTTCGGC | -0.125 E-score
10 | CAGTGCCC | -0.22 E-score
11 | GTTTGTGA | 0.148 E-score
12 | CAGTTGGG | -0.00638 E-score
13 | ACACCAGT | -0.173 E-score
14 | AGCGACGA | 0.0576 E-score
15 | CCGAACGC | -0.192 E-score
16 | TGGCCAAA | -0.145 E-score
17 | TACGAATA | 0.175 E-score
18 | AAAAACAG | 0.235 E-score
19 | ATTTACCG | 0.217 E-score
20 | CGAACCAA | -0.145 E-score
21 | CAAAGGCG | -0.218 E-score
22 | GTGCGAGA | -0.158 E-score
23 | AAAACGGA | -0.0513 E-score
24 | ATCTACAG | 0.26 E-score
25 | CGATTGAC | 0.0142 E-score

Row | Sequence | binding signal
26 | ACAAAGCT | 0.156 E-score
27 | GATACTAA | 0.307 E-score
28 | CCAGTGGA | -0.187 E-score
29 | AGAGCTTA | -0.044 E-score
30 | GCTGTCAC | -0.113 E-score
31 | ACAGCGTA | 0.013 E-score
32 | CTTACGGA | -0.142 E-score
33 | CACTCAAC | -0.00301 E-score
34 | CGGACTGA | -0.271 E-score
35 | GATTAAGC | 0.177 E-score
36 | CCTCCACA | -0.0125 E-score
37 | ACCCCGGC | -0.283 E-score
38 | GCATATTA | 0.242 E-score
39 | AGAGCCGA | -0.249 E-score
40 | CGGAGTCA | -0.0825 E-score
41 | AGCATCTA | 0.174 E-score
42 | AGGGTAGG | -0.0805 E-score
43 | CTCATAAC | -0.0629 E-score
44 | ACATCCGG | 0.00562 E-score
45 | CGCCAGAC | -0.252 E-score
46 | ACCGTACG | 0.144 E-score
47 | AACACTAG | 0.121 E-score
48 | GCAACTCC | -0.137 E-score
49 | ATGCCGAG | -0.194 E-score
50 | ACGGTTTG | 0.151 E-score

Row | Sequence | binding signal
51 | CACGTCCA | -0.203 E-score
52 | TAATCGGA | -0.0831 E-score
53 | CAATGGGC | -0.332 E-score
54 | ATACGCCA | 0.00399 E-score
55 | GAGAGCTC | -0.152 E-score
56 | AGACCAAA | -0.159 E-score
57 | CTTAACAC | -0.0119 E-score
58 | CTTTTTAC | 0.274 E-score
59 | ACGATTAC | -0.0877 E-score
60 | CTGCAGTC | -0.0064 E-score
61 | ATTCGTAG | 0.139 E-score
62 | CCGAGTTC | -0.0244 E-score
63 | CGTAAGCA | -0.118 E-score
64 | CGAGAGCG | -0.328 E-score
65 | GGTCTTAA | -0.313 E-score
66 | CGTAACAC | 0.0468 E-score
67 | ACGGTCGC | -0.194 E-score
68 | GATGACAC | -0.107 E-score
69 | AGTGAGGG | -0.334 E-score
70 | ATACTTGC | 0.153 E-score
71 | ACCCCCTC | -0.478 E-score
72 | AGCGGGCA | -0.128 E-score
73 | GCACCGTA | -0.23 E-score
74 | GGCAGGAC | -0.344 E-score
75 | CGGGAGCC | -0.36 E-score

Row | Sequence | binding signal
76 | ACATGGAT | 0.191 E-score
77 | AGACGAAG | 0.0239 E-score
78 | GGACCAGA | -0.000709 E-score
79 | GACATTCC | 0.108 E-score
80 | CAACTCGG | 0.109 E-score
81 | TCACCAGA | -0.019 E-score
82 | ACCCTTAA | 0.00677 E-score
83 | GTCCAACA | -0.0189 E-score
84 | CCAGGCAC | -0.402 E-score
85 | CAGTTCAC | 0.0579 E-score
86 | AGAGGTTG | -0.222 E-score
87 | CGCCACTC | -0.164 E-score
88 | GACATGAC | 0.184 E-score
89 | AAAGAATT | 0.00672 E-score
90 | AACCGAGT | -0.00949 E-score
91 | AACCCAAG | -0.143 E-score
92 | CAAACGAC | 0.0667 E-score
93 | CTTTAGAA | -0.00385 E-score
94 | CTATGTAA | 0.185 E-score
95 | GGGGCCAC | -0.401 E-score
96 | CCATAGTA | 0.192 E-score
97 | AGCTACTA | 0.291 E-score
98 | ACAAGCCC | -0.188 E-score
99 | GAGACTTA | -0.112 E-score
100 | AGGAGCGG | -0.204 E-score

Row | Sequence | binding signal
101 | CTCCACAG | -0.207 E-score
102 | GTATTGCA | 0.115 E-score
103 | ACCGCTTG | -0.07 E-score
104 | AGATAAAC | 0.24 E-score
105 | CTGAAGTA | 0.134 E-score
106 | CTCACTAA | 0.154 E-score
107 | AGAGGGTC | -0.451 E-score
108 | CCTCGCGC | -0.26 E-score
109 | GAGGGGCA | -0.257 E-score
110 | ATCTCGAG | 0.114 E-score
111 | CAGCCGGC | -0.32 E-score
112 | CACTGCGA | 0.0493 E-score
113 | AACGCATT | 0.0537 E-score
114 | CCTTGACG | -0.29 E-score
115 | AGATTGCA | 0.0509 E-score
116 | CAGGAAGA | -0.0224 E-score
117 | AGCCGAGG | -0.176 E-score
118 | CCAGTCCA | -0.0798 E-score
119 | AATACGAA | 0.148 E-score
120 | ATACGACC | -0.0737 E-score
121 | CTAGTCTA | 0.229 E-score
122 | CGCCCTAC | -0.152 E-score
123 | GCACATCA | 0.0756 E-score
124 | CCGTGAAC | -0.00652 E-score
125 | ATCAGTAG | 0.287 E-score

Row | Sequence | binding signal
126 | TGTGGGAA | -0.1 E-score
127 | AAGATAGT | 0.244 E-score
128 | CAAACCAC | -0.14 E-score
129 | GAGCATGC | -0.189 E-score
130 | TACTGGAA | 0.16 E-score
131 | GGACCGCA | -0.21 E-score
132 | CCACACGG | -0.0759 E-score
133 | AATCGGCC | -0.0499 E-score
134 | AAGTACAC | 0.25 E-score
135 | ACACACGG | -0.383 E-score
136 | AATAATTG | 0.266 E-score
137 | CTTAGTGC | 0.0208 E-score
138 | CGAACCGC | -0.193 E-score
139 | GAGAAATC | 0.118 E-score
140 | ACATAGGA | 0.231 E-score
141 | AACGTATG | 0.113 E-score
142 | ATGAAGTC | -0.0225 E-score
143 | CTTGGCAA | 0.103 E-score
144 | GAAGAACC | -0.00102 E-score
145 | AGGATGGG | -0.144 E-score
146 | CGGGGTTA | -0.232 E-score
147 | TCGCTAAA | 0.187 E-score
148 | GTGACATA | 0.281 E-score
149 | GAGTATGA | 0.0641 E-score
150 | GTAGAAAA | 0.387 E-score

Row | Sequence | binding signal
151 | TACTTAGA | 0.3 E-score
152 | CATCATAC | 0.0476 E-score
153 | CGCACGAC | -0.119 E-score
154 | AACGCGTA | 0.0461 E-score
155 | AAGTTGAA | -0.0679 E-score
156 | ACTAAGCA | 0.114 E-score
157 | CGGATCTA | 0.157 E-score
158 | TCAGCCCA | -0.215 E-score
159 | CAACTACG | 0.12 E-score
160 | ACGAACCC | -0.12 E-score
161 | AACAACTT | 0.174 E-score
162 | TCCCGGCA | -0.136 E-score
163 | TACTATAA | 0.439 E-score
164 | ATGGCCAG | -0.144 E-score
165 | AAGTAGAT | 0.374 E-score
166 | GAGGGACA | -0.267 E-score
167 | GACCGTTA | -0.0188 E-score
168 | CATTGGAG | -0.192 E-score
169 | AATGACCG | -0.0639 E-score
170 | CAAGGGGC | -0.472 E-score
171 | AATGTCAC | 0.0726 E-score
172 | GCGCCTAA | -0.108 E-score
